# Hit rate of the full screen: of about 350,000 compounds, about 260 (0.074%) were called active. Inconclusive means that the source gave no clear call. Such entries were picked first, then a sample of the others. Calls come from the whole dose curve; as a rule, active = well fitted inhibition curve with a large enough effect; inconclusive = small, poorly fitted or top-dose-only effect; inactive = no such curve, though single readings can be large or run the other way. A potency beside an inconclusive call is a rough fit, not a confirmed value.
# Biological target: Ferritin light chain (Equus caballus) (UniProt P02791)
# Chain of UniProt P02791 (P02791 whole entry, looked up): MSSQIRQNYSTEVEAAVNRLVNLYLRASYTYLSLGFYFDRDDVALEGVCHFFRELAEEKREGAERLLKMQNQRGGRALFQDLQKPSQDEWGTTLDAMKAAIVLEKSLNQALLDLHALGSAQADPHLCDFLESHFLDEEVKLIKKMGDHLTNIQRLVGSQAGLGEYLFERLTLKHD
# Assay: qHTS Assay for Identification of Novel General Anesthetics; note: nearly all actives have a fitted effect of over 20% in size
# Conditions: apoferritin/1-aminoanthracene competitive binding, fluorescence; activity change, negative = displacement: at 77.5 µM (top of the series)
# In short: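 Probe: 1-aminoanthracene (50% saturated, PBS). Protein: horse-spleen apoferritin, 10 uM. Incubation: 10 min, room temperature. Detection: 380 nm excitation, 535 nm emission. Analysis: normalized response, four-parameter Hill.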
# % is set by controls: 0 for no effect and ±100 for the full control effect; potency is the fitted concentration of half-maximal effect; tags give direction and shape of the fitted curve.
Compound,Potency,"activity change, negative = displacement"
CSCC[C@H](NC(=O)C1CCN(S(=O)(=O)c2ccc(C)cc2)CC1)C(=O)NC1CCS(=O)(=O)C1 (some centres not stated),inactive,
Cc1cc(=O)oc(C)c1C(=O)OCC(=O)c1ccc(Cl)cc1,"inconclusive: 28.2 µM [inhibitor, partial curve]",
Cc1nc2scc(C)n2c(=O)c1S(=O)(=O)NCc1ccccc1,inactive,
CC1=CC(C)C2C(=O)N(c3ccccc3)C(=O)C2C1 (configuration not stated),"inconclusive: 25.1 µM [inhibitor, partial curve, poor fit]",
COc1cc(Br)c(/C=C(\C#N)c2nc3ccccc3[nH]2)cc1OC,"inconclusive: 35.5 µM [inhibitor, partial curve]",
CC(C)(/C=N/O)/[N+]([O-])=C/c1ccccc1C(F)(F)F,"inconclusive: 31.6 µM [inhibitor, partial curve]",
CC(NCc1ccc(OCc2ccc(Cl)cc2)cc1)C(O)c1ccccc1 (configuration not stated),"inconclusive: 17.8 µM [inhibitor, partial curve]",
Cc1nc2ncnn2c(Nc2ccc3c(c2)OCO3)c1Cc1ccccc1,"inconclusive: 15.8 µM [inhibitor, partial curve]",
O=C(CNC(=O)/C(=C\c1ccccc1)NC(=O)c1ccc(Br)cc1)OCc1ccccc1,"inconclusive: 3.55 µM [inhibitor, partial curve]",
O=c1c2ccccc2nnn1CSc1ccccc1,"inconclusive: 50.1 µM [inhibitor, single point]",
CCn1nnnc1SCC(=O)c1cc(Cl)ccc1OC,"inconclusive: 31.6 µM [inhibitor, partial curve]",
Cc1ccc(N2C(=O)CSC23C(=O)N(CC(=O)NC2CCCCC2)c2ccccc23)cc1 (configuration not stated),"inconclusive: 8.91 µM [inhibitor, partial curve]",
CCc1cccc(CC)c1-n1c(SCC(=O)N2CCc3ccccc3C2)nnc1-c1cccnc1,inactive,
Cc1cccc(CNc2ncnc3ccc(-c4ccccc4CN(C)C)cc23)c1,"inconclusive: 28.2 µM [inhibitor, partial curve]",
COc1ccccc1CNC(=O)c1csc2c1CCCC2,"inconclusive: 17.8 µM [inhibitor, partial curve]",
O=[N+]([O-])c1cc(-n2cnnn2)ccc1N1CCC(Cc2ccccc2)CC1,"inconclusive: 25.1 µM [inhibitor, partial curve]",
Cc1cc(Br)ccc1SCC(=O)OCC(=O)N1CCN(C(=O)c2ccco2)CC1,"inconclusive: 31.6 µM [inhibitor, partial curve]",
Cc1ccc(C(=O)Nn2cnc3ccccc3c2=O)cc1C,inactive,
COc1ccc(CNC(=O)Cn2nc(-c3ccc4c(c3)OCCO4)ccc2=O)cc1,"inconclusive: 3.16 µM [inhibitor, full curve]",
C/C(CC(=O)Nc1cccc(C(F)(F)F)c1)=N\NC(=O)c1ccncc1,inactive,
COc1ccc(Cc2nnc(NC(=O)Cc3cccs3)s2)cc1,"inconclusive: 15.8 µM [inhibitor, partial curve]",

Compound,Potency,"activity change, negative = displacement"
CCCCCCCC(=O)N/N=C(/C)c1c(O)cc(C)oc1=O,"inconclusive: 31.6 µM [inhibitor, partial curve]",
O=S1(=O)N[C@@H](CC2=CCCCC2)C2CCCCC2O1 (some centres not stated),"inconclusive: 50.1 µM [inhibitor, single point]",
O=C(COc1ccc([N+](=O)[O-])cc1)Nc1ccc(CN2CCOCC2)cc1,"inconclusive: 31.6 µM [inhibitor, partial curve]",
CSCC[C@H](NC(=O)CN)C(=O)N[C@@H](CC(=O)O)C(=O)N[C@@H](CO)C(=O)N[C@@H](CC(C)C)C(=O)N[C@@H](C)C(=O)N[C@@H](Cc1ccccc1)C(=O)N[C@@H](CO)C(=O)NCC(=O)NCC(=O)N[C@@H](CC(C)C)C(N)=O,inactive,
O=C(O)c1ccc(Nc2nc(-c3cc4ccccc4oc3=O)cs2)cc1O,inactive,
CNS(=O)(=O)c1cccc(C(=O)OCc2cc(Cl)cc3c2OCOC3)c1,"inconclusive: 50.1 µM [inhibitor, partial curve]",
O=C(Cc1ccc(NC(=O)N2CCSc3ncccc32)cc1)NCCc1ccccc1,inactive,
CCC(=O)N(CCN1CCOCC1)Cc1cc2cc3c(cc2nc1Cl)OCO3,"inconclusive: 25.1 µM [inhibitor, single point]",
CC1CCN(S(=O)(=O)c2ccc(Oc3ccc([N+](=O)[O-])cc3)cc2)CC1,inactive,
OCCC#Cc1c(-c2ccsc2)sc2ccccc12,"inconclusive: 35.5 µM [inhibitor, partial curve]",
O=C(Cn1c2c(sc1=O)C1c3ccccc3OCC1CS2)Nc1ccc(Cl)c(Cl)c1 (configuration not stated),inactive,
Cc1ccc2oc(-c3cc(NC(=O)c4ccco4)ccc3Cl)nc2c1,"inconclusive: 12.6 µM [inhibitor, partial curve]",
C(=N\Nc1nc(-c2ccccc2)cs1)/c1cccnc1,inactive,
COCCCNc1nc2c(S(=O)(=O)c3ccc(C)c(C)c3)nnn2c2ccc(Cl)cc12,"inconclusive: 3.16 µM [inhibitor, full curve, poor fit]",
O=S(=O)(Nc1ccc(N2CCOCC2)cc1)c1ccc(F)cc1F,"inconclusive: 35.5 µM [inhibitor, single point]",
O=C1C=CC2(OCCCO2)C(Br)=C1,,inactive: -4.18% [at 15.3 µM]
Cc1cc(NC2CCCCC2)nc2ccccc12,"inconclusive: 25.1 µM [inhibitor, partial curve]",
O=C(Cn1c(C(F)(F)F)nc2ccccc21)c1ccc(Br)cc1,"inconclusive: 15.8 µM [inhibitor, partial curve]",
C=CCn1c(-c2ccc(OC)cc2)nc2ccccc21,"inconclusive: 44.7 µM [inhibitor, partial curve]",
C[C@@H](NC(=O)c1nc[nH]c1C(=O)N[C@@H](Cc1ccccc1)C(=O)OC(C)(C)C)c1ccccc1,"inconclusive: 4.47 µM [inhibitor, full curve, poor fit]",
CC(=O)Nc1ccc(S(=O)(=O)N2CCN=C2SCc2ccc(C)cc2)cc1,"inconclusive: 12.6 µM [inhibitor, partial curve]",

# From PubChem BioAssay AID485281 (National Center for Advancing Translational Sciences (NCATS), 2010)
